Among the data in PubChem BioAssay (NCI) are GI50 and TGI values, retold here.

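How tested: cells in 96-well plates exposed to compound for 48 hours at five concentrations. GI50 is the concentration that inhibits growth by half. TGI: total growth inhibition.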

This test has as its system NCI-H322M lung. As to the kind of experiment: NCI tumour cell line growth inhibition, 48 h.

With `COc1ccccc1/C=C/C=N/NC1=NC2C(S1)N(C)C(=O)N2C` (centres undefined), the GI50 is 5.73 µM and the TGI is greater than 100 µM.

Regarding `CN(C)c1ccc(-c2c(NC(C)(C)C)nc3c(OCCc4ccccc4)cccn23)cc1`, the GI50 is 2.75 µM and the TGI is 16.1 µM.
